Laboratory results reported in the supplement of paper PMC11741623.
The other results are listed elsewhere or left out. Interaction screen of human proteins with wild-type SARS-CoV-2 proteins by split-DHFR complementation in yeast, 1 µg/mL methotrexate. Value = fitness of the pair (three or more lineages) minus that of the viral protein without a human partner, on a scale set by negative (0) and fused positive (1) controls, mean of up to three cultures; higher = more likely to interact. Active = false discovery rate below 0.05 (one-sided t-test) in at least one culture. Nearly all pairs are not hits, and differences among them are mostly noise (correlation between cultures about 0.3); most hits were seen in one culture only. Human sequences are the Swiss-Prot entries looked up by gene name; the clone may be another isoform. NSP2 values were corrected by the authors for a growth advantage. Listed are human proteins with a hit and a random twelfth of the others.

What was measured:
Assay in all cases: yeast fitness gain over the viral ORF with no human partner (scaled fitness); higher = more likely to interact
SARS-CoV-2 E = biological target: SARS-CoV-2 E
Protocol: (§1)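 Split mouse DHFR complementation in pooled diploid yeast: human ORFeome clones carry one fragment and viral ORFs the other; barcoded lineages compete in 1 µg/mL methotrexate and fitness is read by barcode sequencing in up to three cultures.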

SARS-CoV-2 M = biological target: SARS-CoV-2 M
Protocol: as §1

SARS-CoV-2 N = biological target: SARS-CoV-2 N
Protocol: as §1

SARS-CoV-2 NSP1 = biological target: SARS-CoV-2 NSP1
Protocol: as §1

SARS-CoV-2 NSP10 = biological target: SARS-CoV-2 NSP10
Protocol: as §1

SARS-CoV-2 NSP12 = biological target: SARS-CoV-2 NSP12
Protocol: as §1

SARS-CoV-2 NSP13 = biological target: SARS-CoV-2 NSP13
Protocol: as §1

SARS-CoV-2 NSP14 = biological target: SARS-CoV-2 NSP14
Protocol: as §1

SARS-CoV-2 NSP15 = biological target: SARS-CoV-2 NSP15
Protocol: as §1

SARS-CoV-2 NSP16 = biological target: SARS-CoV-2 NSP16
Protocol: as §1

SARS-CoV-2 NSP2 = biological target: SARS-CoV-2 NSP2
Protocol: as §1

SARS-CoV-2 NSP4 = biological target: SARS-CoV-2 NSP4
Protocol: as §1

SARS-CoV-2 NSP5 = biological target: SARS-CoV-2 NSP5
Protocol: as §1

SARS-CoV-2 NSP6 = biological target: SARS-CoV-2 NSP6
Protocol: as §1

SARS-CoV-2 NSP7 = biological target: SARS-CoV-2 NSP7
Protocol: as §1

SARS-CoV-2 NSP8 = biological target: SARS-CoV-2 NSP8
Protocol: as §1

SARS-CoV-2 NSP9 = biological target: SARS-CoV-2 NSP9
Protocol: as §1

SARS-CoV-2 ORF10 = biological target: SARS-CoV-2 ORF10
Protocol: as §1

SARS-CoV-2 ORF3A = biological target: SARS-CoV-2 ORF3A
Protocol: as §1

SARS-CoV-2 ORF3B = biological target: SARS-CoV-2 ORF3B
Protocol: as §1

SARS-CoV-2 ORF6 = biological target: SARS-CoV-2 ORF6
Protocol: as §1

SARS-CoV-2 ORF7A = biological target: SARS-CoV-2 ORF7A
Protocol: as §1

SARS-CoV-2 ORF7B = biological target: SARS-CoV-2 ORF7B
Protocol: as §1

SARS-CoV-2 ORF8 = biological target: SARS-CoV-2 ORF8
Protocol: as §1

SARS-CoV-2 ORF9B = biological target: SARS-CoV-2 ORF9B
Protocol: as §1

[1] = biological target: SARS-CoV-2 ORF9Bwu (the 73-codon ORF)
Protocol: as §1

SARS-CoV-2 S = biological target: SARS-CoV-2 S
Protocol: as §1

Measured: yeast fitness gain

B1: GAR1, Q9NY12 (protein)
chain: MSFRGGGRGGFNRGGGGGGFNRGGSSNHFRGGGGGGGGGNFRGGGRGGFGRGGGRGGFNKGQDQGPPERVVLLGEFLHPCEDDIVCKCTTDENKVPYFNAPVYLENKEQIGKVDEIFGQLRDFYFSVKLSENMKASSFKKLQKFYIDPYKLLPLQRFLPRPPGEKGPPRGGGRGGRGGGRGGGGRGGGRGGGFRGGRGGGGGGFRGGRGGGFRGRGH
inactive: SARS-CoV-2 E 0.0207 | SARS-CoV-2 M 0.0803 | SARS-CoV-2 N 0.117 | SARS-CoV-2 NSP1 = 0.0352 | SARS-CoV-2 NSP10 = 0.0214 | SARS-CoV-2 NSP12 = -0.0433 | SARS-CoV-2 NSP13 = 0.0221 | SARS-CoV-2 NSP14 = 0.149 | SARS-CoV-2 NSP15 = -0.048 | SARS-CoV-2 NSP16 = -0.0298 | SARS-CoV-2 NSP2 = -0.218 | SARS-CoV-2 NSP4 = 0.14 | SARS-CoV-2 NSP5 = 0.0211 | SARS-CoV-2 NSP6 = -0.0911 | SARS-CoV-2 NSP7 = 0.0354 | SARS-CoV-2 NSP8 = -0.13 | SARS-CoV-2 NSP9 = 0.147 | SARS-CoV-2 ORF10 = -0.117 | SARS-CoV-2 ORF3A -0.11 | SARS-CoV-2 ORF3B -0.0393 | SARS-CoV-2 ORF6 = 0.043 | SARS-CoV-2 ORF7A -0.108 | SARS-CoV-2 ORF7B 0.00293 | SARS-CoV-2 ORF8 = -0.0345 | SARS-CoV-2 ORF9B 0.0931 | [1] 0.0346 | SARS-CoV-2 S 0.123

B2: EMD, P50402 (protein)
chain: MDNYADLSDTELTTLLRRYNIPHGPVVGSTRRLYEKKIFEYETQRRRLSPPSSSAASSYSFSDLNSTRGDADMYDLPKKEDALLYQSKGYNDDYYEESYFTTRTYGEPESAGPSRAVRQSVTSFPDADAFHHQVHDDDLLSSSEEECKDRERPMYGRDSAYQSITHYRPVSASRSSLDLSYYPTSSSTSFMSSSSSSSSWLTRRAIRPENRAPGAGLGQDRQVPLWGQLLLFLVFVIVLFFIYHFMQAEEGNPF
active: SARS-CoV-2 ORF7B 0.239
inactive: SARS-CoV-2 E -0.00739 | SARS-CoV-2 M 0.064 | SARS-CoV-2 N 0.116 | SARS-CoV-2 NSP1 = -0.00463 | SARS-CoV-2 NSP10 = 0.0222 | SARS-CoV-2 NSP12 = 0.072 | SARS-CoV-2 NSP13 = 0.0495 | SARS-CoV-2 NSP14 = -0.0555 | SARS-CoV-2 NSP15 = -0.0855 | SARS-CoV-2 NSP16 = 0.00686 | SARS-CoV-2 NSP2 = -0.0762 | SARS-CoV-2 NSP4 = 0.362 | SARS-CoV-2 NSP5 = -0.00498 | SARS-CoV-2 NSP6 = 0.0625 | SARS-CoV-2 NSP7 = -0.0215 | SARS-CoV-2 NSP8 = 0.0368 | SARS-CoV-2 NSP9 = 0.0864 | SARS-CoV-2 ORF10 = 0.00966 | SARS-CoV-2 ORF3A -0.00905 | SARS-CoV-2 ORF3B -0.0124 | SARS-CoV-2 ORF6 = -0.00575 | SARS-CoV-2 ORF7A 0.108 | SARS-CoV-2 ORF8 = 0.0273 | SARS-CoV-2 ORF9B 0.0119 | [1] -0.0261 | SARS-CoV-2 S 0.0534

B3: CXCL14, O95715 (protein)
chain: MSLLPRRAPPVSMRLLAAALLLLLLALYTARVDGSKCKCSRKGPKIRYSDVKKLEMKPKYPHCEEKMVIITTKSVSRYRGQEHCLHPKLQSTKRFIKWYNAWNEKRRVYEE
inactive: SARS-CoV-2 E -0.0708 | SARS-CoV-2 M 0.0615 | SARS-CoV-2 NSP1 = -0.0414 | SARS-CoV-2 NSP10 = 0.0488 | SARS-CoV-2 NSP12 = -0.129 | SARS-CoV-2 NSP13 = -0.0931 | SARS-CoV-2 NSP15 = -0.444 | SARS-CoV-2 NSP16 = 0.0749 | SARS-CoV-2 NSP2 = -0.103 | SARS-CoV-2 NSP5 = -0.00845 | SARS-CoV-2 NSP6 = -0.0456 | SARS-CoV-2 NSP7 = 0.0391 | SARS-CoV-2 NSP8 = 0.0842 | SARS-CoV-2 NSP9 = 0.03 | SARS-CoV-2 ORF10 = -0.0199 | SARS-CoV-2 ORF3A -0.0556 | SARS-CoV-2 ORF3B -0.00783 | SARS-CoV-2 ORF6 = 0.00441 | SARS-CoV-2 ORF7A 0.0487 | SARS-CoV-2 ORF7B 0.0126 | SARS-CoV-2 ORF8 = -0.0112 | SARS-CoV-2 ORF9B -0.0449 | [1] 0.106 | SARS-CoV-2 S 0.0335

B4: NRSN2, Q9GZP1 (protein)
chain: MMPSCNRSCSCSRGPSVEDGKWYGVRSYLHLFYEDCAGTALSDDPEGPPVLCPRRPWPSLCWKISLSSGTLLLLLGVAALTTGYAVPPKLEGIGEGEFLVLDQRAADYNQALGTCRLAGTALCVAAGVLLAICLFWAMIGWLSQDTKAEPLDPEADSHVEVFGDEPEQQLSPIFRNASGQSWFSPPASPFGQSSVQTIQPKRDS
inactive: SARS-CoV-2 E 0.0316 | SARS-CoV-2 M -0.0177 | SARS-CoV-2 N 0.0988 | SARS-CoV-2 NSP1 = -0.128 | SARS-CoV-2 NSP10 = -0.0115 | SARS-CoV-2 NSP12 = -0.0603 | SARS-CoV-2 NSP13 = 0.0105 | SARS-CoV-2 NSP14 = -0.211 | SARS-CoV-2 NSP16 = 0.105 | SARS-CoV-2 NSP2 = -0.152 | SARS-CoV-2 NSP4 = -0.0189 | SARS-CoV-2 NSP5 = -0.0532 | SARS-CoV-2 NSP7 = 0.0552 | SARS-CoV-2 NSP8 = -0.0218 | SARS-CoV-2 NSP9 = 0.0389 | SARS-CoV-2 ORF10 = -0.0143 | SARS-CoV-2 ORF3A -0.0155 | SARS-CoV-2 ORF3B -0.0228 | SARS-CoV-2 ORF6 = -0.0617 | SARS-CoV-2 ORF7A 0.0842 | SARS-CoV-2 ORF7B -0.0237 | SARS-CoV-2 ORF8 = 0.0862 | SARS-CoV-2 ORF9B 0.00781 | [1] 0.0405 | SARS-CoV-2 S 0.0375

B5: GATSL3, Q8WTX7 (protein)
chain: MELHILEHRVRVLSVARPGLWLYTHPLIKLLFLPRRSRCKFFSLTETPEDYTLMVDEEGFKELPPSEFLQVAEATWLVLNVSSHSGAAVQAAGVTKIARSVIAPLAEHHVSVLMLSTYQTDFILVREQDLSVVIHTLAQEFDIYREVGGEPVPVTRDDSSNGFPRTQHGPSPTVHPIQSPQNRFCVLTLDPETLPAIATTLIDVLFYSHSTPKEAASSSPEPSSITFFAFSLIEGYISIVMDAETQKKFPSDLLLTSSSGELWRMVRIGGQPLGFDECGIVAQIAGPLAAADISAYYISTFNFDHALVPEDGIGSVIEVLQRRQEGLAS
inactive: SARS-CoV-2 E 0.0365 | SARS-CoV-2 M 0.0265 | SARS-CoV-2 N 0.0711 | SARS-CoV-2 NSP1 = 0.0626 | SARS-CoV-2 NSP10 = 0.0415 | SARS-CoV-2 NSP12 = 0.0164 | SARS-CoV-2 NSP13 = 0.00548 | SARS-CoV-2 NSP14 = -0.196 | SARS-CoV-2 NSP15 = -0.087 | SARS-CoV-2 NSP16 = -0.166 | SARS-CoV-2 NSP2 = -0.077 | SARS-CoV-2 NSP4 = 0.0141 | SARS-CoV-2 NSP5 = 0.0562 | SARS-CoV-2 NSP6 = 0.037 | SARS-CoV-2 NSP7 = 0.0559 | SARS-CoV-2 NSP8 = -0.0291 | SARS-CoV-2 NSP9 = -0.0118 | SARS-CoV-2 ORF10 = 0.0311 | SARS-CoV-2 ORF3A -0.0109 | SARS-CoV-2 ORF3B -0.0465 | SARS-CoV-2 ORF6 = 0.0165 | SARS-CoV-2 ORF7A -0.00861 | SARS-CoV-2 ORF7B -0.0743 | SARS-CoV-2 ORF8 = -0.00564 | SARS-CoV-2 ORF9B 0.0298 | [1] -0.000125 | SARS-CoV-2 S 0.0213
